# In all, about 310,000 compounds went through this assay and about 14,000 (4.5%) showed an effect of 50% or more. The effect is printed as a negative number. The list shows a part of the results.
# Biological target: human ether-à-go-go-related gene (hERG) potassium channel (human, UniProt Q12809)
# Experiment: primary screen, population patch clamp on CHO cells stably expressing hERG
# 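Further: peak tail current of the secondary pulse compared with the same well before compound.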
# human ether-à-go-go-related gene (hERG) potassium channel, sequence (Q12809 whole entry, looked up): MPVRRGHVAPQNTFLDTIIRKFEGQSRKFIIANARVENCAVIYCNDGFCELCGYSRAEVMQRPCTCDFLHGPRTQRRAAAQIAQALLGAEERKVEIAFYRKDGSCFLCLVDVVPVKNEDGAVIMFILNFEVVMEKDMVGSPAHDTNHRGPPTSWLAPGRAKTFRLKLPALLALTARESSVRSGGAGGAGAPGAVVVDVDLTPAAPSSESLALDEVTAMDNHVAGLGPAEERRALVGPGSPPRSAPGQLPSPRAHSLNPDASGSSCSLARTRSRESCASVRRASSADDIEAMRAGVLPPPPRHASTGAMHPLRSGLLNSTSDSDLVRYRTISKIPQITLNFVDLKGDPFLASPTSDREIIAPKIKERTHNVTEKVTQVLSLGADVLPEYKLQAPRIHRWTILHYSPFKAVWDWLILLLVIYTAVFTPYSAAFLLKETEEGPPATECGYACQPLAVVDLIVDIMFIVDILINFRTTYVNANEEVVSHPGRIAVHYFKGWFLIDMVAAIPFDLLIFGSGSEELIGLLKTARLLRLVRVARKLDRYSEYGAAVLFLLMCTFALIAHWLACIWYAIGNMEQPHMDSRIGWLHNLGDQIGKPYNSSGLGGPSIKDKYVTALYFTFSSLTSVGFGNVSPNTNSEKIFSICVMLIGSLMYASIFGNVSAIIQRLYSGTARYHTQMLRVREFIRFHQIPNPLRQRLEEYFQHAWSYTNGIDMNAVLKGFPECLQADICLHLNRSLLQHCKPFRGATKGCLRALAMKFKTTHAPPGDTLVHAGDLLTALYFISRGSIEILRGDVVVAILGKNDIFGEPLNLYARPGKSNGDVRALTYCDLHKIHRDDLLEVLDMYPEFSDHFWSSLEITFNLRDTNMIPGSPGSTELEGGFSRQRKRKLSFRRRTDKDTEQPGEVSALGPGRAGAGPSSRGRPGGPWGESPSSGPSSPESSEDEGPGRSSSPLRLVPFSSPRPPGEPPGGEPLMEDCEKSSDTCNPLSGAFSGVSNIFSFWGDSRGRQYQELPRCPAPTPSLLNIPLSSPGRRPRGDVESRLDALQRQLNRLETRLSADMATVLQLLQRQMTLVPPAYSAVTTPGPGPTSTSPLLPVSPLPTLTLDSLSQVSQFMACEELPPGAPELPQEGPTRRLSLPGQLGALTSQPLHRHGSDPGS
row,SMILES,"hERG current change (%, negative = inhibition) at 10uM [%]"
1,O=C(CCC(=O)Nc1cccc([N+](=O)[O-])c1)NCc1ccccc1,-11.6
2,O=C(Nn1cnnc1)C(c1ccccc1)c1ccccc1,2.78
3,Cc1nnc(NC(=O)COc2ccccc2)s1,2.23
4,COc1cc(CC(=O)N(C)CC(=O)Nc2cc(C)ccc2C)cc(OC)c1OC,11
5,O=C1NC(=Nc2ccccc2)S/C1=C\c1cccnc1,-18.4
6,C/C(=N\NC(=O)C(=O)Nc1cccc(Cl)c1)c1ccncc1,-12.1
7,CCOC(=O)C(Cc1ccc(NC(=O)/C(=C/c2ccc(OC(C)=O)cc2)NC(C)=O)cc1)N1C(=O)c2ccccc2C1=O (stereo not drawn),4.63
8,CC(=O)c1ccc(OCC(=O)Nc2ccc3c(c2)CCC3)cc1,7.89
9,S=C(Nc1ccc2nccnc2c1)N1CCCC1,42.5
10,CN1CCN(/C=N/c2c(C#N)cnn2-c2ccccc2)CC1,-19
11,CSc1ccc(CN2CCCN(C)CC2)cc1,-10.1
12,COc1cc(C)c(Cl)c(C)c1S(=O)(=O)NCc1cccnc1,4.92
13,CC1CCCN(c2ccc(C(=O)Nc3nnc(C4CC4)s3)cc2[N+](=O)[O-])C1 (stereo not drawn),9.38
14,Cl.NCCCCCc1nnc(SCc2ccc(Cl)c(Cl)c2)o1,-27.8
15,CC(C)=NN1C(=O)c2ccccc2NC1(C)C,26.9
16,COc1ccc(C(=O)CC(c2ccccc2)C2CCCCC2=O)cc1 (stereo not drawn),12.2
17,COc1cccc(C(=O)NCC(=O)N2CCC(C)CC2)c1,15.4
18,Cc1cccc(CSc2nc3sc(C)c(C)c3c(=O)n2Cc2ccco2)c1,15.5
19,CCOc1cc(CNc2ccc3c(c2)CCC3)ccc1O,10.8
20,O=C(c1cc2c(s1)-c1ccccc1OC2)N1CCCC1,-4.69

row,SMILES,"hERG current change (%, negative = inhibition) at 10uM [%]"
1,COc1ccc(NC(=O)C2CCN(S(C)(=O)=O)CC2)cc1OC,15.2
2,c1ccc(-c2nc(-c3ccccn3)no2)cc1,-1.66
3,O=C(c1cc(Br)c[nH]1)N1CCSCC1,4.32
4,CC(=O)C(C)Oc1ccc(Cc2ncc(C(F)(F)F)cc2Cl)cc1 (stereo not drawn),-16.5
5,O=C(Nc1ccccc1)c1cc([N+](=O)[O-])ccc1N1CCNCC1,-37.8
6,OC(CNC1CCCCC1)c1ccccc1 (stereo not drawn),12.1
7,C#CCOC(=O)c1cc(Cl)c(=O)n(Cc2ccc(Cl)cc2Cl)c1,-18.8
8,CCCSc1nc(NCc2ccco2)c2c3c(sc2n1)COC(C)(C)C3,-8.2
9,COc1ccc(C2=NN(S(C)(=O)=O)C(c3cccs3)C2)cc1 (stereo not drawn),-1.23
10,Cc1ccccc1NCC(=O)N=Nc1c(O)[nH]c2ccc([N+](=O)[O-])cc12,0.439
11,CCCN1CCN(C(=O)c2oc3ccccc3c2NC(=O)C2CC2)CC1,-42.6
12,C=C(C)CN=c1scc(C)n1/N=C/c1ccco1,-5.28
13,O=c1cc(C(F)(F)F)[nH]c(=S)n1-c1ccccc1,35.2
14,Cc1c(Cl)cnc(NC(=O)COC(=O)c2cccc(S(=O)(=O)N3c4ccccc4CC3C)c2)c1Cl (stereo not drawn),-7.49
15,Cc1cccc(Cl)c1NC(=S)NCCc1ccccn1,11.9
16,Cc1cc(Cl)c(S(=O)(=O)N2CCSCC2)cc1OCC(=O)NC1CCCCC1,-11.4
17,FC(F)(F)c1ccc(Cl)c(N/N=C/c2ccc(N3CCOCC3)s2)c1,16.7
18,CCCc1nnc2c(N(C)S(=O)(=O)c3ccc(C)cc3)nc3ccccc3n12,-43
19,NNc1nc(-c2ccccc2)cc(-c2ccc(Br)cc2)n1,1.23
20,CCCC1CCc2c(sc(NC(=O)OCC)c2C#N)C1 (stereo not drawn),5.05

row,SMILES,"hERG current change (%, negative = inhibition) at 10uM [%]"
1,CC1CCCCN1c1nnc(NC(=O)Cn2c(=O)oc3ccccc32)s1 (stereo not drawn),18.3
2,CCc1ccc(OCC(=O)NNC(=O)c2ccc(NC(=O)C3CC3)cc2)cc1,5.18
3,COCCN1C(=O)C(O)=C(C(=O)c2cccs2)C1c1ccccc1 (stereo not drawn),24.1
4,Clc1ccccc1OCc1nc(-c2ccc(Br)o2)no1,0.169
5,C[C@@]12CCC=C[C@H]1[C@H](c1ccoc1)N(Cc1ccccc1)C2=O,-8.15
6,Cn1cccc2[nH]c(=O)nc1-2,15.3
7,COC(=O)c1cc(NC(=O)c2nn(C)c(=O)c3ccccc23)cc(C(=O)OC)c1,9.47
8,COc1ccccc1C1CN(c2ccc(F)cc2F)N=C1c1cccs1 (stereo not drawn),-10.3
9,COCCCn1nnnc1SCC(=O)N1CCN(C(=O)c2ccco2)CC1,11.2
10,CCC(=O)N(Cc1cc2cccc(C)c2[nH]c1=O)c1ccccc1OC,-4.31
11,CC(C)CC(=O)N1CCN(C(=O)c2cccc(F)c2)CC1,0.0457
12,S=C(NCc1ccncc1)Nc1cc(Cl)cc(Cl)c1,-38.3
13,O=[N+]([O-])c1ccc(NC(=S)N2CCc3ccccc3C2)cc1,-2.68
14,O=S1(=O)NC2CCCCCN2c2ccc(F)cc21 (stereo not drawn),-11.4
15,O=C(c1ccccc1)N1CCCOC1c1ccccc1 (stereo not drawn),-2.84
16,COc1ccc(C(=O)CNc2ccc(C)cc2C)cc1,15.7
17,O=C(COc1coc(CN2CCN(c3ccccc3F)CC2)cc1=O)NCC1CCCO1 (stereo not drawn),1.33
18,N#C/C(=C\c1ccccc1[N+](=O)[O-])c1nc(C2CC2)cs1,4.89
19,COc1ccc(CNC(=O)COc2ccc(S(=O)(=O)N3CCCCC3)cc2Cl)cc1,-10.1
20,COc1ccccc1/C=N/NC(=O)CC(=O)NC1CCCCC1,17.8
